# Measured values: the supplement of paper PMC8728848
# Some of the results follow.
# Key:
# Test in all cases: glycan array binding signal (z-score within array); higher = stronger binding
# Details in all cases: glycan notation: IUPAC condensed, linker removed
# [1] = biological target: Fuc(a1-3)[Gal3S(b1-4)]GlcNAc6S
# In short: (§1)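 From the Consortium for Functional Glycomics database, 3228 arrays were curated, keeping only those whose protein sequence was available. Binding is given as a within-array Z-score averaged across arrays sharing a protein sequence and across linkers. Negative Z-scores can be read as non-binding.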
# [2] = biological target: Fuc(a1-3)[GalNAc(b1-4)]GlcNAc
# In short: as §1
# [3] = biological target: Fuc(a1-3)[GalNAc(b1-4)]GlcNAc6S
# In short: as §1
# Fuc(a1-4)GlcNAc = biological target: Fuc(a1-4)GlcNAc
# In short: as §1
# Fuc(b1-3)GlcNAc = biological target: Fuc(b1-3)GlcNAc
# In short: as §1
# Gal(a1-2)Gal = biological target: Gal(a1-2)Gal
# In short: as §1
# Gal(a1-3)Gal = biological target: Gal(a1-3)Gal
# In short: as §1
# Gal(a1-3)Gal(b1-3)GlcNAc = biological target: Gal(a1-3)Gal(b1-3)GlcNAc
# In short: as §1
# [4] = biological target: Gal(a1-3)Gal(b1-3)GlcNAc(b1-2)Man
# In short: as §1
# [5] = biological target: Gal(a1-3)Gal(b1-3)GlcNAc(b1-2)Man(a1-3)[Gal(a1-3)Gal(b1-3)GlcNAc(b1-2)Man(a1-6)]Man(b1-4)GlcNAc(b1-4)GlcNAc
# In short: as §1
# [6] = biological target: Gal(a1-3)Gal(b1-3)GlcNAc(b1-3)GalNAc
# In short: as §1
# [7] = biological target: Gal(a1-3)Gal(b1-3)GlcNAc(b1-6)GalNAc
# In short: as §1
# [8] = biological target: Gal(a1-3)Gal(b1-3)[Fuc(a1-4)]GlcNAc(b1-2)Man(a1-3)[Gal(a1-3)Gal(b1-3)[Fuc(a1-4)]GlcNAc(b1-2)Man(a1-6)]Man(b1-4)GlcNAc(b1-4)GlcNAc
# In short: as §1
# Gal(a1-3)Gal(b1-4)Glc = biological target: Gal(a1-3)Gal(b1-4)Glc
# In short: as §1
# Gal(a1-3)Gal(b1-4)GlcNAc = biological target: Gal(a1-3)Gal(b1-4)GlcNAc
# In short: as §1
# [9] = biological target: Gal(a1-3)Gal(b1-4)GlcNAc(b1-2)Man
# In short: as §1
# [10] = biological target: Gal(a1-3)Gal(b1-4)GlcNAc(b1-2)Man(a1-3)[Gal(a1-3)Gal(b1-4)GlcNAc(b1-2)Man(a1-6)]Man(b1-4)GlcNAc(b1-4)GlcNAc
# In short: as §1
# [11] = biological target: Gal(a1-3)Gal(b1-4)GlcNAc(b1-3)GalNAc
# In short: as §1
# [12] = biological target: Gal(a1-3)Gal(b1-4)GlcNAc(b1-6)GalNAc
# In short: as §1
# [13] = biological target: Gal(a1-3)Gal(b1-4)[Fuc(a1-3)]GlcNAc
# In short: as §1
# [14] = biological target: Gal(a1-3)Gal(b1-4)[Fuc(a1-3)]GlcNAc(b1-2)Man(a1-3)[Gal(a1-3)Gal(b1-4)[Fuc(a1-3)]GlcNAc(b1-2)Man(a1-6)]Man(b1-4)GlcNAc(b1-4)GlcNAc
# In short: as §1
# Gal(a1-3)GalNAc = biological target: Gal(a1-3)GalNAc
# In short: as §1
# [15] = biological target: Gal(a1-3)[Gal(a1-4)]Gal(b1-4)GlcNAc
# In short: as §1
# [16] = biological target: Gal(a1-4)Gal(b1-3)GlcNAc(b1-2)Man(a1-3)[Gal(a1-4)Gal(b1-3)GlcNAc(b1-2)Man(a1-6)]Man(b1-4)GlcNAc(b1-4)GlcNAc
# In short: as §1
# Gal(a1-4)Gal(b1-4)Glc = biological target: Gal(a1-4)Gal(b1-4)Glc
# In short: as §1
# Gal(a1-4)Gal(b1-4)GlcNAc = biological target: Gal(a1-4)Gal(b1-4)GlcNAc
# In short: as §1
# [17] = biological target: Gal(a1-4)Gal(b1-4)GlcNAc(b1-2)Man(a1-3)[Gal(a1-4)Gal(b1-4)GlcNAc(b1-2)Man(a1-6)]Man(b1-4)GlcNAc(b1-4)GlcNAc
# In short: as §1
# [18] = biological target: Gal(a1-4)Gal(b1-4)GlcNAc(b1-3)Gal(b1-4)Glc
# In short: as §1
# Gal(a1-4)GlcNAc = biological target: Gal(a1-4)GlcNAc
# In short: as §1
# Gal(a1-6)Glc = biological target: Gal(a1-6)Glc
# In short: as §1
# Gal(b1-2)Gal = biological target: Gal(b1-2)Gal
# In short: as §1
# Gal(b1-3)Gal = biological target: Gal(b1-3)Gal
# In short: as §1
# Gal(b1-3)Gal(b1-4)GlcNAc = biological target: Gal(b1-3)Gal(b1-4)GlcNAc
# In short: as §1
# Gal(b1-3)GalNAc = biological target: Gal(b1-3)GalNAc
# In short: as §1
# [19] = biological target: Gal(b1-3)GalNAc(a1-3)[Fuc(a1-2)]Gal(b1-4)Glc
# In short: as §1
# [20] = biological target: Gal(b1-3)GalNAc(a1-3)[Fuc(a1-2)]Gal(b1-4)GlcNAc
# In short: as §1
# Gal(b1-3)GalNAc(b1-3)Gal = biological target: Gal(b1-3)GalNAc(b1-3)Gal
# In short: as §1
binder,measurement,setting,value
PX9937A-bvu-521-23-521 (Bacteroides vulgatus) (protein) LDLAPEDYYGAGNFWKEASQPKAFMLGLHAQLRSYYDMFYTLGELRGGTQRVGTSSLNTSLNYADIRSQNISEDIPGISNWNGLYSPIMQVNHFIQEVENGCTFLDDATRSRYLGQAYGMRALYYFMLYRTFGGVPLITKVDILDGKPSADKFYVERATPEATMEFIKADINKSENYFGNNTSFDAYDWSRYATLMLKAEIYMWAAKVSITGFTATGATDLQTAKTALSGIIGHFELMDNFASIFSCDNKKNTEIIFAMPFIEGEASNDGGRFLYQDAVFLGQAYGRNGKVIEKDTLNLKGTGGVFRDEYTEDFWKTFKEGDSRRDATFMEYYMKNDNGTLSEFGCVMKKRIGTINSNDNRIYISDIPVYRYADALLMMAEIENGLNNPCASYINEVRKRAYGDTFEENKYTEGSYAENELAILQERDKEFVSEGKRWFDVLRMHDASGRSLVFSANANYPGTNPILGTEEAYKMLWPVNIGTLNVNPLLTQTPGYGKK,glycan array binding signal (z-score),[1],0.01
same,glycan array binding signal (z-score),[2],0.502
same,glycan array binding signal (z-score),[3],-0.075
same,glycan array binding signal (z-score),Fuc(a1-4)GlcNAc,0.148
same,glycan array binding signal (z-score),Fuc(b1-3)GlcNAc,-0.326
same,glycan array binding signal (z-score),Gal(a1-2)Gal,-0.412
same,glycan array binding signal (z-score),Gal(a1-3)Gal,-0.052
same,glycan array binding signal (z-score),Gal(a1-3)Gal(b1-3)GlcNAc,-0.068
same,glycan array binding signal (z-score),[4],-0.643
same,glycan array binding signal (z-score),[5],0.258
same,glycan array binding signal (z-score),[6],-0.446
same,glycan array binding signal (z-score),[7],-0.119
same,glycan array binding signal (z-score),[8],-0.065
same,glycan array binding signal (z-score),Gal(a1-3)Gal(b1-4)Glc,-0.315
same,glycan array binding signal (z-score),Gal(a1-3)Gal(b1-4)GlcNAc,-0.686
same,glycan array binding signal (z-score),[9],-0.427
same,glycan array binding signal (z-score),[10],0.763
same,glycan array binding signal (z-score),[11],-0.226
same,glycan array binding signal (z-score),[12],0.237
same,glycan array binding signal (z-score),[13],-0.319
same,glycan array binding signal (z-score),[14],6.91
same,glycan array binding signal (z-score),Gal(a1-3)GalNAc,-0.476
same,glycan array binding signal (z-score),[15],2.4
same,glycan array binding signal (z-score),[16],-0.165
same,glycan array binding signal (z-score),Gal(a1-4)Gal(b1-4)Glc,0.404
same,glycan array binding signal (z-score),Gal(a1-4)Gal(b1-4)GlcNAc,0.696
same,glycan array binding signal (z-score),[17],-0.078
same,glycan array binding signal (z-score),[18],-0.51
same,glycan array binding signal (z-score),Gal(a1-4)GlcNAc,-0.194
same,glycan array binding signal (z-score),Gal(a1-6)Glc,-0.448
same,glycan array binding signal (z-score),Gal(b1-2)Gal,-0.195
same,glycan array binding signal (z-score),Gal(b1-3)Gal,-0.259
same,glycan array binding signal (z-score),Gal(b1-3)Gal(b1-4)GlcNAc,-0.181
same,glycan array binding signal (z-score),Gal(b1-3)GalNAc,-0.234
same,glycan array binding signal (z-score),[19],0.538
same,glycan array binding signal (z-score),[20],-0.214
same,glycan array binding signal (z-score),Gal(b1-3)GalNAc(b1-3)Gal,0.877
